# Data reported in the supplement of paper PMC8728848.
# Some of the results follow.
# B1: LecB PA7 (Pseudomonas aeruginosa) (protein)
# chain: MATQGVFTLPANTRFGVTAFANSSATQTVKVLVNNETAATFTGQSTNNAVIGSQVLNSGGGGKVQIQVSVNGRSSDLVSAQVILANELNVALVGSEDSTDNDYNDAVVVINWPLG
# Columns and labels:
# Assay in all cases: glycan array binding signal (z-score within array); higher = stronger binding
# Settings in all cases: glycan notation: IUPAC condensed, linker removed
# [1] = target: Gal(b1-3)GlcNAc(b1-2)Man(a1-3)[Gal(b1-3)GlcNAc(b1-2)Man(a1-6)]Man(b1-4)GlcNAc(b1-4)[Fuc(a1-6)]GlcNAc
# Outline: (§1)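 The Consortium for Functional Glycomics database supplied 3228 glycan arrays, of which those lacking an available protein sequence were dropped. The binding signal, a within-array Z-score, was averaged across arrays of the same protein sequence and across linkers. Negative scores can be read as non-binding.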
# [2] = target: Gal(b1-3)GlcNAc(b1-2)Man(a1-3)[GlcNAc(b1-4)][Gal(b1-3)GlcNAc(b1-2)Man(a1-6)]Man(b1-4)GlcNAc(b1-4)GlcNAc
# Outline: as §1
# [3] = target: Gal(b1-3)GlcNAc(b1-2)[Gal(b1-3)GlcNAc(b1-6)]Man(a1-6)[Gal(b1-3)GlcNAc(b1-2)Man(a1-3)]Man(b1-4)GlcNAc(b1-4)GlcNAc
# Outline: as §1
# [4] = target: Gal(b1-3)GlcNAc(b1-3)Gal(b1-3)GlcNAc
# Outline: as §1
# [5] = target: Gal(b1-3)GlcNAc(b1-3)Gal(b1-4)Glc
# Outline: as §1
# [6] = target: Gal(b1-3)GlcNAc(b1-3)Gal(b1-4)GlcNAc
# Outline: as §1
# [7] = target: Gal(b1-3)GlcNAc(b1-3)Gal(b1-4)GlcNAc(b1-2)Man(a1-3)[Gal(b1-3)GlcNAc(b1-3)Gal(b1-4)GlcNAc(b1-2)Man(a1-6)]Man(b1-4)GlcNAc(b1-4)GlcNAc
# Outline: as §1
# [8] = target: Gal(b1-3)GlcNAc(b1-3)Gal(b1-4)GlcNAc(b1-2)[Gal(b1-3)GlcNAc(b1-3)Gal(b1-4)GlcNAc(b1-6)]Man(a1-6)[Gal(b1-3)GlcNAc(b1-3)Gal(b1-4)GlcNAc(b1-2)Man(a1-3)]Man(b1-4)GlcNAc(b1-4)[Fuc(a1-6)]GlcNAc
# Outline: as §1
# [9] = target: Gal(b1-3)GlcNAc(b1-3)Gal(b1-4)GlcNAc(b1-3)Gal(b1-4)GlcNAc(b1-2)[Gal(b1-3)GlcNAc(b1-3)Gal(b1-4)GlcNAc(b1-3)Gal(b1-4)GlcNAc(b1-6)]Man(a1-6)[Gal(b1-3)GlcNAc(b1-3)Gal(b1-4)GlcNAc(b1-3)Gal(b1-4)GlcNAc(b1-2)Man(a1-3)]Man(b1-4)GlcNAc(b1-4)[Fuc(a1-6)]GlcNAc
# Outline: as §1
# [10] = target: Gal(b1-3)GlcNAc(b1-3)Gal(b1-4)GlcNAc(b1-6)[Gal(b1-3)GlcNAc(b1-3)]Gal(b1-4)Glc
# Outline: as §1
# [11] = target: Gal(b1-3)GlcNAc(b1-3)Gal(b1-4)[Fuc(a1-3)]GlcNAc
# Outline: as §1
# [12] = target: Gal(b1-3)GlcNAc(b1-3)Gal(b1-4)[Fuc(a1-3)]GlcNAc(b1-6)[Gal(b1-3)GlcNAc(b1-3)]Gal(b1-4)Glc
# Outline: as §1
# [13] = target: Gal(b1-3)GlcNAc(b1-3)GalNAc
# Outline: as §1
# [14] = target: Gal(b1-3)GlcNAc(b1-6)Gal(b1-4)GlcNAc
# Outline: as §1
# [15] = target: Gal(b1-3)GlcNAc(b1-6)GalNAc
# Outline: as §1
# [16] = target: Gal(b1-3)GlcNAc(b1-6)[Gal(b1-3)]GalNAc
# Outline: as §1
# Gal(b1-3)GlcNAc6S = target: Gal(b1-3)GlcNAc6S
# Outline: as §1
# [17] = target: Gal(b1-3)[Fuc(a1-4)]GlcNAc
# Outline: as §1
# [18] = target: Gal(b1-3)[Fuc(a1-4)]GlcNAc(b1-2)Man
# Outline: as §1
# [19] = target: Gal(b1-3)[Fuc(a1-4)]GlcNAc(b1-2)Man(a1-3)[Gal(b1-3)[Fuc(a1-4)]GlcNAc(b1-2)Man(a1-6)]Man(b1-4)GlcNAc(b1-4)[Fuc(a1-6)]GlcNAc
# Outline: as §1
# [20] = target: Gal(b1-3)[Fuc(a1-4)]GlcNAc(b1-3)Gal(b1-3)[Fuc(a1-4)]GlcNAc
# Outline: as §1
# [21] = target: Gal(b1-3)[Fuc(a1-4)]GlcNAc(b1-3)Gal(b1-4)[Fuc(a1-3)]GlcNAc
# Outline: as §1
# [22] = target: Gal(b1-3)[Fuc(a1-4)]GlcNAc(b1-6)GalNAc
# Outline: as §1
# [23] = target: Gal(b1-3)[GlcNAc(b1-6)]GalNAc
# Outline: as §1
# [24] = target: Gal(b1-3)[Neu5Ac(a2-6)]GalNAc
# Outline: as §1
# [25] = target: Gal(b1-3)[Neu5Ac(a2-6)]GlcNAc(b1-4)Gal(b1-4)Glc
# Outline: as §1
# [26] = target: Gal(b1-3)[Neu5Ac(b2-6)]GalNAc
# Outline: as §1
# Gal(b1-4)Gal = target: Gal(b1-4)Gal
# Outline: as §1
# [27] = target: Gal(b1-4)GalNAc(a1-3)[Fuc(a1-2)]Gal(b1-4)GlcNAc
# Outline: as §1
# [28] = target: Gal(b1-4)GalNAc(b1-3)[Fuc(a1-2)]Gal(b1-4)GlcNAc
# Outline: as §1
# Gal(b1-4)Glc = target: Gal(b1-4)Glc
# Outline: as §1
# Gal(b1-4)Glc6S = target: Gal(b1-4)Glc6S
# Outline: as §1
# Gal(b1-4)GlcNAc = target: Gal(b1-4)GlcNAc
# Outline: as §1
# [29] = target: Gal(b1-4)GlcNAc(a1-6)Gal(b1-4)GlcNAc
# Outline: as §1
# Gal(b1-4)GlcNAc(b1-2)Man = target: Gal(b1-4)GlcNAc(b1-2)Man
# Outline: as §1
# [30] = target: Gal(b1-4)GlcNAc(b1-2)Man(a1-3)Man(b1-4)GlcNAc(b1-4)GlcNAc
# Outline: as §1
# [31] = target: Gal(b1-4)GlcNAc(b1-2)Man(a1-3)[Gal(b1-4)GlcNAc(b1-2)Man(a1-6)]Man(b1-4)GlcNAc(b1-4)GlcNAc
# Outline: as §1
# [32] = target: Gal(b1-4)GlcNAc(b1-2)Man(a1-3)[Gal(b1-4)GlcNAc(b1-2)Man(a1-6)]Man(b1-4)GlcNAc(b1-4)[Fuc(a1-6)]GlcNAc
# Outline: as §1
# [33] = target: Gal(b1-4)GlcNAc(b1-2)Man(a1-3)[Gal(b1-4)GlcNAc(b1-2)Man(a1-6)][Gal(b1-4)GlcNAc(b1-4)]Man(b1-4)GlcNAc(b1-4)[Fuc(a1-6)]GlcNAc
# Outline: as §1
# [34] = target: Gal(b1-4)GlcNAc(b1-2)Man(a1-3)[Gal(b1-4)GlcNAc(b1-2)Man(a1-6)][GlcNAc(b1-4)]Man(b1-4)GlcNAc(b1-4)[Fuc(a1-6)]GlcNAc
# Outline: as §1
# [35] = target: Gal(b1-4)GlcNAc(b1-2)Man(a1-3)[GlcNAc(b1-2)Man(a1-6)]Man(b1-4)GlcNAc(b1-4)GlcNAc
# Outline: as §1
# [36] = target: Gal(b1-4)GlcNAc(b1-2)Man(a1-3)[GlcNAc(b1-4)][Gal(b1-4)GlcNAc(b1-2)Man(a1-6)]Man(b1-4)GlcNAc(b1-4)GlcNAc
# Outline: as §1
# [37] = target: Gal(b1-4)GlcNAc(b1-2)Man(a1-3)[Man(a1-6)]Man(b1-4)GlcNAc(b1-4)GlcNAc
# Outline: as §1
# [38] = target: Gal(b1-4)GlcNAc(b1-2)Man(a1-6)Man(b1-4)GlcNAc(b1-4)GlcNAc
# Outline: as §1
# [39] = target: Gal(b1-4)GlcNAc(b1-2)Man(a1-6)[GlcNAc(b1-2)Man(a1-3)]Man(b1-4)GlcNAc(b1-4)GlcNAc
# Outline: as §1
binder,measurement,setting,value
B1,glycan array binding signal (z-score),[1],0.034
same,glycan array binding signal (z-score),[2],-0.075
same,glycan array binding signal (z-score),[3],-0.209
same,glycan array binding signal (z-score),[4],-0.499
same,glycan array binding signal (z-score),[5],-0.365
same,glycan array binding signal (z-score),[6],-0.498
same,glycan array binding signal (z-score),[7],-0.35
same,glycan array binding signal (z-score),[8],0.391
same,glycan array binding signal (z-score),[9],0.705
same,glycan array binding signal (z-score),[10],-0.472
same,glycan array binding signal (z-score),[11],1.8
same,glycan array binding signal (z-score),[12],-0.017
same,glycan array binding signal (z-score),[13],-0.499
same,glycan array binding signal (z-score),[14],-0.507
same,glycan array binding signal (z-score),[15],-0.504
same,glycan array binding signal (z-score),[16],-0.412
same,glycan array binding signal (z-score),Gal(b1-3)GlcNAc6S,-0.512
same,glycan array binding signal (z-score),[17],2.51
same,glycan array binding signal (z-score),[18],0.08
same,glycan array binding signal (z-score),[19],0.033
same,glycan array binding signal (z-score),[20],3.31
same,glycan array binding signal (z-score),[21],3.44
same,glycan array binding signal (z-score),[22],0.473
same,glycan array binding signal (z-score),[23],-0.509
same,glycan array binding signal (z-score),[24],-0.511
same,glycan array binding signal (z-score),[25],-0.504
same,glycan array binding signal (z-score),[26],-0.515
same,glycan array binding signal (z-score),Gal(b1-4)Gal,-0.495
same,glycan array binding signal (z-score),[27],-0.46
same,glycan array binding signal (z-score),[28],-0.478
same,glycan array binding signal (z-score),Gal(b1-4)Glc,-0.502
same,glycan array binding signal (z-score),Gal(b1-4)Glc6S,-0.474
same,glycan array binding signal (z-score),Gal(b1-4)GlcNAc,-0.512
same,glycan array binding signal (z-score),[29],-0.515
same,glycan array binding signal (z-score),Gal(b1-4)GlcNAc(b1-2)Man,-0.495
same,glycan array binding signal (z-score),[30],-0.499
same,glycan array binding signal (z-score),[31],-0.502
same,glycan array binding signal (z-score),[32],-0.125
same,glycan array binding signal (z-score),[33],0.387
same,glycan array binding signal (z-score),[34],0.17
same,glycan array binding signal (z-score),[35],-0.437
same,glycan array binding signal (z-score),[36],-0.505
same,glycan array binding signal (z-score),[37],-0.34
same,glycan array binding signal (z-score),[38],-0.486
same,glycan array binding signal (z-score),[39],-0.49
